Data reported in article PMC4336329 (PLoS ONE, 2015).
Hit rate of the full screen: of about 310,000 compounds, about 14,000 (4.5%) showed an effect of 50% or more. The effect is printed as a negative number. The list shows a part of the results.

Molecular target: human ether-à-go-go-related gene (hERG) potassium channel (human, UniProt Q12809)
Assay: primary screen, population patch clamp on CHO cells stably expressing hERG
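Also: peak tail current of the secondary pulse compared with the same well before compound.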

Chain of human ether-à-go-go-related gene (hERG) potassium channel (Q12809 whole entry, looked up): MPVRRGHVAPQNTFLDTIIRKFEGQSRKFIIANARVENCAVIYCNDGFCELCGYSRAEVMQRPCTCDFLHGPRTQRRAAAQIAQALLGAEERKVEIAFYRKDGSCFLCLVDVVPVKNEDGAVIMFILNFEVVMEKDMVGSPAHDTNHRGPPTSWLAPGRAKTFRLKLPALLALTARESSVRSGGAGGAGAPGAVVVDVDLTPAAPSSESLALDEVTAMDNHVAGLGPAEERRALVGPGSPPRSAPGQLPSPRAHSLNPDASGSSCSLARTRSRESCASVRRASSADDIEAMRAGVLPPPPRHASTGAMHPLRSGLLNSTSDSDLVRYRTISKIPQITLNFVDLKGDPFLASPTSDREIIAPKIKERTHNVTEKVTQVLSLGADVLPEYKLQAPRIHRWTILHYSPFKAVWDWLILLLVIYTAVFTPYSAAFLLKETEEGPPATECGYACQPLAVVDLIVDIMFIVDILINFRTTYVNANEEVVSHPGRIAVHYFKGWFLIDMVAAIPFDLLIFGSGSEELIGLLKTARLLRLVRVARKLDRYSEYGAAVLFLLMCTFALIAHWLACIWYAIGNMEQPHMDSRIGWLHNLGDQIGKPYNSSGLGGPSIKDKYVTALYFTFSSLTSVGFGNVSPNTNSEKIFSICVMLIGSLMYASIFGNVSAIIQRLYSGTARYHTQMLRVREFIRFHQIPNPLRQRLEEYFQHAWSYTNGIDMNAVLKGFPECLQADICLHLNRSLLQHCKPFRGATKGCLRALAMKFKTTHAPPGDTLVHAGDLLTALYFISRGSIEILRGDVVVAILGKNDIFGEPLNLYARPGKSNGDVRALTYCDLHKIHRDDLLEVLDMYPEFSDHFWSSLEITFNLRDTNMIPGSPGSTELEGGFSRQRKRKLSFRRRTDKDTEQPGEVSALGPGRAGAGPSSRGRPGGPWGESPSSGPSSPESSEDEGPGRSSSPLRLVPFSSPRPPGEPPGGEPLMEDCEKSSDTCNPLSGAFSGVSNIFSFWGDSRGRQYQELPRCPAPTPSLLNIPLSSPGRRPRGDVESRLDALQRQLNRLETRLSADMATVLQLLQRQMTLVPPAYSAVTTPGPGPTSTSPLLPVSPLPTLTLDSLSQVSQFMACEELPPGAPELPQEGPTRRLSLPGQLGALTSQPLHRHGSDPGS

SMILES | hERG current change (%, negative = inhibition) at 10uM [%]
Cc1c(CCOC(=O)c2ccc([N+](=O)[O-])cc2)sc[n+]1CC(=O)c1ccccc1.[Br-] | -63.7
Cc1cccc(OCCOCCN2CCOCC2)c1C | -10.5
Cc1ccc2[nH]c(=O)c(CN(CCc3ccccc3)C(c3nnnn3Cc3ccco3)C(C)C)cc2c1 (centres unmarked) | 21.2
S=C(Nc1ccccc1Cl)N1CCCC1 | 21.9
Cc1cc([N+](=O)[O-])c2ccccc2[n+]1[O-] | 8.51
Clc1ccccc1OCCn1ccnc1 | -6.02
CCCCn1c(N)c(N(CC(C)C)C(=O)c2cc3c(s2)CCC3)c(=O)[nH]c1=O | -2.24
C/C=C(\C)C(=O)NCCN1C2=NC[C@H](Cc3ccc(O)cc3)N2C[C@@H]1Cc1ccc(OC)cc1 | -2.89
CCCCN(C)c1c(N2CCC(C(=O)OCC)CC2)c(=O)c1=O | -43.7
O=C(O)CSc1nnc(-c2ccccc2)o1 | 10.9
CNC(=O)c1c(NC(=O)c2ccc(S(=O)(=O)N(C)c3ccccc3)cc2)sc2c1CCN(C(C)C)C2 | 2.88
CCCCc1cc2c(c(NC(C)=O)n1)c(=O)oc1ccccc12 | 11.3
S=C(Nc1ccc(Cc2ccncc2)cc1)Nc1cccc(Cl)c1 | -15
O=C(COC(=O)c1ccccc1-c1ccccc1[N+](=O)[O-])c1ccccc1 | -7.23
Cc1ccc(NC(=O)COC(=O)c2cccc(OC(F)F)c2)cc1S(=O)(=O)N1CCCCC1 | -21.1
COc1cccc(N(CC(=O)NCCN2CCOCC2)S(=O)(=O)c2ccccc2)c1 | -4.96
O=C(COc1ccc(Cl)cc1)Nc1ccc(C(=O)O)cc1NC(=O)COc1ccc(Cl)cc1 | 13.2
Cc1ccc(C(=O)C(C)OC(=O)CNS(=O)(=O)c2ccc(C)cc2)cc1 (centres unmarked) | -6.12
CCOc1ccc(-c2nc(CSCC(=O)N3CCN(C(=O)c4ccco4)CC3)c(C)o2)cc1 | -28.8
O=c1cc(Cl)[nH]c(=O)n1Cc1ccc(F)cc1 | 5.07
O=C(C1CCN(S(=O)(=O)c2cccc3cccnc23)CC1)N1CCN(Cc2ccccc2)CC1 | -14.9
CC1=NN(c2ccccc2)C(=O)/C1=C\c1cc(C)n(-c2cccnc2)c1C | 15.1
O=C1CCc2cc(S(=O)(=O)N3CCN(c4cccc(Cl)c4)CC3)ccc2N1 | -1.42
Cc1nc2c(-c3ccc(F)cc3)c(C)nn2c(C)c1CCC(=O)Nc1ccc(F)cc1F | 12.9
CC(=O)N1CCN(c2ccc(N=Cc3c(O)n(-c4ccc(Cl)cc4)c(=O)[nH]c3=O)cc2)CC1 | 1.55
Cc1onc(-c2c(Cl)cccc2Cl)c1C(=O)Nc1ccc(C(N)=O)cc1 | -5.71
O=C(Cn1nc(-c2ccccc2)nc1-c1ccccc1)N1CCOCC1 | -13.5

SMILES | hERG current change (%, negative = inhibition) at 10uM [%]
COc1ccc(C(=O)NC(=S)Nc2cccc3nc(C)ccc23)cc1OC | 8.45
CCOC(=O)c1[nH]c(C)c(C(=O)NCc2ccc(C)cc2)c1C | 5.32
CCCCC(=O)Nc1ccc(C(=O)NNC(=O)c2cccs2)cc1 | 16.2
CCCN1C(=O)CSC1=Nc1ccccc1 | 4.34
CCC(C(=O)NCCCN1CCN(CC)CC1)n1nc(C)n2c(cc3occc32)c1=O (centres unmarked) | 8.68
CC(=O)C1=C(O)C(=O)N(Cc2ccco2)C1c1ccc(F)cc1 (centres unmarked) | 2.43
CCOc1ncccc1C(=O)Nc1ccc(F)cc1 | -5.46
Cc1ccc(CNC(=O)Cn2c(=O)c3sccc3n(Cc3ccc([N+](=O)[O-])cc3)c2=O)cc1 | -37.9
N#CCNC(=O)C1c2ccccc2Oc2ccccc21 | 21.6
Cc1nc(SCC(=O)c2ccccc2)c(C#N)c(-c2ccco2)c1C(=O)NCc1ccco1 | -33.9
CCNC(=O)CSc1nnc(-c2ccccc2)n1-c1ccc(OCC)cc1 | -62.8
COC(=O)C1=C(COc2ccccc2)NC(=O)NC1c1ccc2ccccc2c1 (centres unmarked) | 8.15
COc1ccc(CCNC(=O)C2CCCN(S(C)(=O)=O)C2)cc1OC (centres unmarked) | 12
O=C(NC1CCCC1)C(c1ccccc1)N(C(=O)c1ccno1)c1ccccc1 (centres unmarked) | 1.77
CCS(=O)(=O)C1=NSC2=NC(=O)/C(=C\c3cc(C)n(-c4cccc(OC)c4)c3C)C(=N)N21 | -17.4
CCOC(=O)N/N=C/c1c(C)nn(-c2ccccc2Cl)c1Cl | -17.6
O=C1C=C(c2ccccc2)C[C@H](c2cccs2)[C@H]1n1cnc([N+](=O)[O-])c1 | -18.8
CCCCn1c(N)c(N(CC(C)C)C(=O)c2ccc(Cl)c(S(=O)(=O)N3CCCC3)c2)c(=O)[nH]c1=O | -8.15
O=C(COC(=O)c1cc(=O)[nH]c(=O)[nH]1)NCc1ccccc1 | 10.5
Cc1cccc(C2Nc3cccc4cccc(c34)N2)c1 | 8.36
CCOC(=O)N1CCC(NC(=O)c2cc(-c3ccc(F)cc3)[nH]c2C)CC1 | -0.721
COc1ccc(S(=O)(=O)N2CCN(C)CC2)cc1C(=O)N1CCCCC1 | 8.37
CCCN1C(=O)c2cc(C(=O)Nc3ccccc3OC)ccc2C1Nc1ccccc1OC (centres unmarked) | -34.7
O=C(C1=C[C@H](C2CC2)C[C@H](OCCCCO)O1)N1CCN(Cc2ccc3c(c2)OCO3)CC1 | -26.3
CCCNC(=O)C(=O)N/N=C/c1ccc(OCc2ccccc2)cc1 | 26.9
CCO/N=C(/C)c1c(O)cc(-c2ccccc2)n(-c2ccccc2)c1=O | 1.16
